# From the RNAGym collection of RNA variant scans (doi:10.1073/pnas.2313332121)
# Variants at the background level are over-represented here.
# B1: TPR 5TU (parent)
# chain: GGAUCUUCUCGAUCUAACAAAAAAGACAAAUCUGCCACAAAGCUUGAGAGCAUCUUCGGAUGCAGAGGCGGCAGCCUUCGGUGGCGCGAUAGCGCCAACGUUCUCAACUAUGACACGCAAAACGCGUGCUCCGUUGAAUGGAGUUUAUCAUG
# Variants of: B1
# Experiment: polymerase ribozyme fitness, log enrichment relative to wild type (log ratio); higher = more active; in vitro selection for triplet polymerase activity
# Procedure, shortened: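 To select mutant libraries of each subunit of a heterodimeric triplet polymerase ribozyme, built by PCR and transcribed, each was annealed with a biotinylated primer, partner subunit and triplets, then incubated frozen at −7 °C. Extended constructs were gel-excised, captured on streptavidin beads and amplified by RT-PCR, in one round carried out in triplicate. Illumina sequencing of input and output libraries kept genotypes with ≥10 input reads and ≥1 read per output. Fitness is the base-2 logarithm of genotype enrichment relative to wild-type enrichment, from inverse-variance-weighted replicate averages.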
row,Variant,polymerase ribozyme fitness (log ratio)
1,A16U A22U G46A C85G C118G,≤ -4.2
2,A16U A19U A30C C85U C129G,≤ -4.2
3,A16U C35U C93U G136U U139A,≤ -4.2
4,A16G G86U,-2.72
5,A16U C38U C108U,≤ -4.2
6,A16G C57G G86A C96U C99U G117A A137U,≤ -4.2
7,A16U G48C C85U U102A G112C,≤ -4.2
8,A16U A24U U55A U56A G70C G83C G112C A120U G141U,≤ -4.2
9,A16U A23U A64C C79U G83U C96G A142C,≤ -4.2
10,A16G C54U G92C C96A G112U,≤ -4.2
11,A16U C27G U77A G84U G126A,≤ -4.2
12,A16U G50C U56A G84C A97U U101A A113C A119G G133U A137U,≤ -4.2
13,A17C G34U C51U C57A G86A,-4.06
14,A17C C95U A119U A150G,-1.7
15,A16G G58U U77G C93U A97U U102G G126U C131A,≤ -4.2
16,A16G G94A U104A,-0.709
17,A16U A23C A40G U55A U61A C87A C103G U109G C114U,≤ -4.2
18,A16U A19U A39U U61A A113G G128A G141C,≤ -4.2
19,A16U A64U C85G G88A C116G G128U U139G U144G,≤ -4.2
20,A16U A28C G94U C96U A110C,≤ -4.2
21,A17C A89U,0.471
22,A17C U33C G83A G141U,≤ -4.2
23,A17C A40C G83C U109G,-3.6
24,A16U A28C G58A A60G U82G C93U,≤ -4.2

row,Variant,polymerase ribozyme fitness (log ratio)
1,A16U C35G G50A G88U C99G C105G C116U G143C,≤ -4.2
2,A16U A30G G83A U102G A107U,≤ -4.2
3,A16G C35A,-3.53
4,A16U C63U G92A,≤ -4.2
5,A16U A41G A47C C76G G88C G94C A110C U134A G140A G141C A147C,≤ -4.2
6,A16U A37G C95G A142G,≤ -4.2
7,A16G C27U G42C G58C C75U C95U A138U,≤ -4.2
8,A16U G46C A110C U111C,≤ -4.2
9,A16U A17C A30U U33C C35A G71A U146G,≤ -4.2
10,A16U G42A C63G,≤ -4.2
11,A16U A22C A30G A40U U53A A73G A107U U134C A147C U148A A150U,≤ -4.2
12,A17C A39C A52G G83C G92C U104G G126U G140C,≤ -4.2
13,A16U A19C A40C C76A G88A U135G,≤ -4.2
14,A16U A30U A60C G83U A97G,≤ -4.2
15,A16U A17G A20G C35A G59C A66G A91U C114U,≤ -4.2
16,A16G U33G C95G,≤ -4.2
17,A16U U44A G71C C96G A106U U127C G133U G141C U148C,≤ -4.2
18,A16G C18A C87G C149U,≤ -4.2
19,A16G C35G C43A A47C C85G A97G C125G A138U,≤ -4.2
20,A16U C125A,-2.06
21,A16U G84A,-2.41
22,A17G A22C G128U G133C,≤ -4.2
23,A17C A40C G74C A113U A115G U134G,≤ -4.2
24,A17G A20C G50C C75U U148G,≤ -4.2

row,Variant,polymerase ribozyme fitness (log ratio)
1,A16U U61A C95U,-3.06
2,A17C U31C A47C U55A G88C,≤ -4.2
3,A17C G46A G48C A91U U130G,≤ -4.2
4,A17C A40U U55A A60U A66C C85G C116G G141C A147U,≤ -4.2
5,A16G C43G C57U G84A C85A A91C U127C,≤ -4.2
6,A17C A23C C32U G84U,≤ -4.2
7,A16U C35A G74A G80C G83U G86A A97U,≤ -4.2
8,A16U C75G G84U A122C,≤ -4.2
9,A17C A19U G58A A97G U102G A119G,-3.63
10,A17C C36G G50A U77G A89G,≤ -4.2
11,A17C C27U U33A A47C,≤ -4.2
12,A16U A24U A30C G65A C76U C96G,≤ -4.2
13,A16G G70A C93A,≤ -4.2
14,A16G C35A C76G C116U A120C U139C,≤ -4.2
15,A17C U44G G50A C87G C131A,≤ -4.2
16,A16U A49G,-1.93
17,A16G U33A C54U G58A G81U C95G A98U,≤ -4.2
18,A16U A21G A23G U104G,≤ -4.2
19,A16U G50A A60C G83C G141C,≤ -4.2
20,A16G C43U U45A C75U C93G U102A,≤ -4.2
21,A16G U82G G100C A142G,≤ -4.2
22,A17C A23U A52U U56C,≤ -4.2
23,A17C A22G C69G U78G A150G,≤ -4.2
24,A16G G68U C76A U77C C85U,≤ -4.2

row,Variant,polymerase ribozyme fitness (log ratio)
1,A16U A47G C79U G81C C105G U130A,≤ -4.2
2,A16U A47G G48U C85G C95A,≤ -4.2
3,A16U C18U A41C G74A C93A,≤ -4.2
4,A16U G50C G58A G65A C125A G136A A142U,≤ -4.2
5,A17C A52C C79A G81A G84U A110G G112C,≤ -4.2
6,A16G C27A U82G C87A A115G A122C,≤ -4.2
7,A16G U31C C51U U53G C125A G140C,≤ -4.2
8,A16G G25C U55A C76A C87A C116G U139G U148A,≤ -4.2
9,A16G C51U C85G U127G A138U,≤ -4.2
10,A17C A19G C51U G59U C75A A91U C116G A121C,≤ -4.2
11,A16U U53A A66G C87A,≤ -4.2
12,A16U A28G G34A C79G G81C C99A A147G,≤ -4.2
13,A16G G84A C85U C95A A107C C123A,≤ -4.2
14,A16U C129A,-3.81
15,A16U A137U G140C A142G,≤ -4.2
16,A16U C85U C103G U144A,≤ -4.2
17,A16G U33A C36A U56A C76A C85A A119G,≤ -4.2
18,A16U A17U G48U U104G G124A C131G,-4.15
19,A16U A22U U44C U53A C87A A89G,≤ -4.2
20,A16U A24U C35U G92A U127A,≤ -4.2
21,A16U U109G A110C A120G C125U G143C U151G,≤ -4.2
22,A17C C32G C43G U53G A66G U101A A137C,≤ -4.2
23,A16U A22C U53A G84C A122G U127A G140U,≤ -4.2
24,A16U C35U A49C C75U A142U,≤ -4.2

row,Variant,polymerase ribozyme fitness (log ratio)
1,A17C G74U C85A A91G G92C C93G C118A A120C,≤ -4.2
2,A16U C54A G58C A91U C95G A142U,≤ -4.2
3,A17C C93U,-1.02
4,A16G A97G U144G,-0.0952
5,A17C A30C,-3.82
6,A17C A21G C27G A52C G88C,≤ -4.2
7,A16U C87U,-2.65
8,A16U C87G,≤ -4.2
9,A17C G68A G83A C116A G128A,≤ -4.2
10,A16U G84U G86U C93G U144C,-3.51
11,A16G G46U U61A G68U,≤ -4.2
12,A17G A19U A21U A30C G50A G59A,≤ -4.2
13,A17C G46A C85A C99G A147U,≤ -4.2
14,A17C A22U A37U A60G G71U U78A C93A U104G A122C,≤ -4.2
15,A17C A47C C95U C116U,-0.195
16,A16U C43U C87U U104G A107G C118A,≤ -4.2
17,A17C C18A A39C C99A A119G,≤ -4.2
18,A17C G62U C93G,-3.31
19,A17C G48C U61G C96A C99U C116U U134G,≤ -4.2
20,A16G C27U C35U A49C C93G G136A U148C,≤ -4.2
21,A17C U44A C57U C76G C79U C85A A91G C123A,≤ -4.2
22,A16U G59A C69G A91G,≤ -4.2
23,A16G U77C G86C G117U,≤ -4.2
24,A17C A19U,0.475

row,Variant,polymerase ribozyme fitness (log ratio)
1,A17G A21C C116U,0.03
2,A16U G71A A73G C93U A113C C118A G140A,≤ -4.2
3,A16U A29U G59C G62C G80C C103U A137C,≤ -4.2
4,A16U A24G C72G G84A C105U C123U U127C,≤ -4.2
5,A17C A40U G42A A52U G84A C85G U102A C118U,≤ -4.2
6,A17C C131G,-3.09
7,A16G C76A G86A A89U G133C U145G,≤ -4.2
8,A16G U31A A39U C132U G136A,-3.4
9,A17C A122U G141C C149G,≤ -4.2
10,A17C A21G A22U U55A C57U C85A G86U U134G G152A,≤ -4.2
11,A16U A22C G59A C118A,-3.09
12,A16U A52C C85A C87U U139G,≤ -4.2
13,A16U A24U U61A A91C C99G C105G C114U U144G,≤ -4.2
14,A16U C18G C32G G58C C87A A120G,≤ -4.2
15,A16U U44G G48A C87U U102G C131U C132G,≤ -4.2
16,A16G G34A U90G,≤ -4.2
17,A16U U45A G50A U148G A150C,≤ -4.2
18,A16U A21U A24U C27G C79A C93U,≤ -4.2
19,A16U C43A G50C U56A C69G A73G G94A C108G,≤ -4.2
20,A17C G86U A106C A107U U135C A138U U148A,≤ -4.2
21,A16G C69U C85U C131G A142U,≤ -4.2
22,A16U A20U G25C C93U A98G A121C G133C,≤ -4.2
23,A17C A28G G68U U78C A89U C95A A107G A119G U144C U148G,≤ -4.2
24,A16U C35A C87A A91G C149G,≤ -4.2

row,Variant,polymerase ribozyme fitness (log ratio)
1,A17C A21U G48A A66C G84A,≤ -4.2
2,A16U A91U U146A,≤ -4.2
3,A16U A29U U61G C93G A122G,≤ -4.2
4,A16U A29U A91C A98G C99A U148A,≤ -4.2
5,A16U A20C G83C C96A A107G,≤ -4.2
6,A17C C95U C96U G136A U144C A147U,-0.941
7,A16U G83C C99A,-3.97
8,A17C U61C C131G G143A,≤ -4.2
9,A16G A52C U53G G84A G92A A121U G152A,≤ -4.2
10,A17C A40U U53A C76G C93U U146G,≤ -4.2
11,A17C A20G C35U C36A G50U G140C,≤ -4.2
12,A16U C96A C116U G140A,≤ -4.2
13,A16U A37U U45A C93U G100C U111C C114A G141U,≤ -4.2
14,A16U A110U G140C,≤ -4.2
15,A16G A52C U53A G92C U109G A137C U139G,≤ -4.2
16,A16U A47C U53A C85G C131A U134A G140U,≤ -4.2
17,A16U U31A C38G A41C G62C A120U A142G A147U,≤ -4.2
18,A17C A52G G81A G83A A98U,-0.507
19,A16U C76A G83C C95G,≤ -4.2
20,A16U C54U,-1.53
21,A16U G50U A66U G92A,≤ -4.2
22,A16G C51U C95G C96A G141U A147C,≤ -4.2
23,A16U C35U G74C C93U A150U G152A,≤ -4.2
